± gives the standard deviation of the averaged measurements. Some of the results follow.
Test system: PfAP2-I AP2 domain 3 (GST-tagged)
Test: gcPBM binding intensity (ln(normalized median fluorescence intensity)); higher = stronger DNA binding
Method in brief: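 Binding intensity is the highest Masliner-normalised natural-log median intensity over replicate spots in either probe orientation. To obtain it, GST-tagged P. falciparum DNA-binding domains made in E. coli were incubated for 1 h on an Agilent 4 × 180k array of primer-extended double-stranded 36-bp intergenic genomic probes plus negative controls. Detection used Alexa488 anti-GST antibody with scanning at 488 nm.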

Row | Sequence | gcPBM binding intensity (ln)
1 | ATTATAACACTTATTTCATTTGTATGCCCTTTAAAA [CACACA_negctrl_site955] | 8.09 ± 0.73
2 | AGACCTATGATATATACACACATATATTTATTTATA [CACACA_site6630] | 7.77 ± 0.55
3 | TATATATATATACCAACACACATACATATATATATA [CACACA_site8530] | 9.45 ± 0.23
4 | TAAAAAATAAAAATTGCACACTAAAAAATTACGCAC [CACACA_site9129] | 9.64 ± 0.057
5 | AAGTATAAATTAAAATGTACTTATAAAAAAAAAGAA [XGTACX_site7028] | 8.12 ± 0.37
6 | TGTCACATAATTTATGCACACAATGATTATGCTTAA [CACACA_site2358] | 9.63 ± 0.16
7 | CCATATTTCATTAATGAACACACAAAGAGGTATATA [CACACA_site8431] | 7.88 ± 0.47
8 | ACATATATTGTACATACACACCTATATAAATATCCT [CACACA_site7503] | 8.24 ± 0.54
9 | TATGTATGTATGTATGCATGTGTAACACCTAAATAT [TGCATGCA_site361] | 8.39 ± 0.64
10 | ACATATATATATATGTGTACATATTTATACAACAAT [XGTACX_site6660] | 8.22 ± 0.13
11 | AAAAATAAAATATATACACACATATATATATATATA [CACACA_site2943] | 9.4 ± 0.33
12 | TTTTTAATTTTGTGGGTGCTTTCGTGTTATTATATA | 9.415 ± 0.021
13 | AGGAAATTTGTTATTGCACACAAATTTTTCTTTTTT [CACACA_site8732] | 10.1 ± 0.29
14 | AATGTCAGTATGCGAGGTACACGTATAAAAATTACA [XGTACX_site4109] | 7.92 ± 0.54
15 | TATTATAATAAACCTATACACACATAAATAAATAAA [GTGCAC_negctrl_site627] | 7.81 ± 0.57
16 | TACATAAATTAAAACACACACACACTAGAAAAAAAA [CACACA_site5278] | 8.29 ± 0.23
17 | TTTTACTAAATATATACACACATTATACAGATATAT [CACACA_site5765] | 7.79 ± 0.6
18 | TTTGGGTATACACATACATGCATGTCCTTATATATA [TGCATGCA_site84] | 7.86 ± 0.63
19 | ATATCATAAATTTATGCATGTTCTTTCTTCAACTCT [TGCATGCA_site992] | 7.86 ± 0.88

Row | Sequence | gcPBM binding intensity (ln)
20 | TTTTTTTTTTCTCTCGCACACATTTTTTAAAATGAG [CACACA_site2607] | 8.38 ± 0.76
21 | AGTAGGCATATTGGTTGTACAAAAAAATTATGCACC [XGTACX_site8925] | 11.2 ± 0.61
22 | GACTCTTAAAAAATTTGTACCCACATAAATAATATA [XGTACX_site4313] | 8.02 ± 0.31
23 | ATATTTATATAGATGTGTACATAAATATAATAACAT [XGTACX_site1681] | 8.18 ± 0.42
24 | ATATATATATATGTTTATTTATTTGAACGATTGTGG [CACACA_negctrl_site828] | 9.4 ± 0.56
25 | ATAATATAATATATATGTACACATCCTTTTTGTGTA [XGTACX_site2879] | 7.82 ± 0.38
26 | TAAAAGTAAAAAGGTAGTACCTAAATAATATATATA [XGTACX_site8399] | 8.4 ± 0.68
27 | TATATATCCTCTGAATGTACTTGTTTAATAATGTAG [XGTACX_site4332] | 7.63 ± 0.33
28 | TGTGTAATATTCTGTTGTACATAACTCATAAATAAA [XGTACX_site5308] | 7.95 ± 0.31
29 | ATAAGATAGGCATATACACACATTTATTTACAGATA [CACACA_site5754] | 7.71 ± 0.67
30 | GAATAAAAAATTGGCACACATAAATATATGGATATA [CACACA_site3047] | 8.01 ± 0.39
31 | TTCAACATATTAAAAAGTACAGAATATAACATTATA [XGTACX_site1361] | 7.72 ± 0.33
32 | AATAAATTTAGACACACACACACATATAAATAAATA [CACACA_site6531] | 7.96 ± 0.47
33 | TATACGTGAATGACAGTGCATTTCAAAAGTATAAAA [GTGCAC_site9887] | 9.93 ± 0.33
34 | ATTAGTGACATTATTACACACAAAAGAAAACAGAAA [CACACA_site3984] | 8.11 ± 0.52
35 | TGAATCTATATACAGGTGCGTAAAAAATAACTTATA | 10 ± 0.31
36 | CAAGAATTAAAATAAAGTACAAAAGTAACAACTTTT [XGTACX_site1474] | 7.54 ± 0.53
37 | AAAAAAAAGGAAAAGGGTACAAAACCATACTTACAT [XGTACX_site4783] | 7.74 ± 0.76
38 | TTATCATTACATGAGTGTACATTATTATATTTTTTT [XGTACX_site7845] | 7.75 ± 0.5

Row | Sequence | gcPBM binding intensity (ln)
39 | TAAAGATATAAATGCACACGTATTAAAAAAAAAATA [CACACA_site952] | 9.39 ± 0.49
40 | ATATATTTTTTTTTTTGTACGTATATTTATATAATT [XGTACX_site8719] | 7.95 ± 0.81
41 | GAAAGAAAGAAAGAAAGTACATATAAAAATATACAT [XGTACX_site7299] | 7.63 ± 0.49
42 | ATGATAGTAATTAATAGTACTTTTTTTGATACAAAA [XGTACX_site4288] | 7.61 ± 0.4
43 | TCGTGTTTTAAAAAAATGAAGAAAAGTAAAAAAAAA [XGTACX_negctrl_site23] | 8.01 ± 0.74
44 | ATTAAATGTATGACTTGTACATAAAATAAAAAAAAA [XGTACX_site6555] | 7.78 ± 0.55
45 | TAATATGAATATATATGTACATACAATTTGTTATAT [XGTACX_site5815] | 8 ± 0.45
46 | TATCCTAATGCTACCACACACACAAAAACAAATAAT [CACACA_site2609] | 8.51 ± 0.16
47 | ATGTTGAAAGGAAAAAATAATAAAATCGATATATTA [CACACA_negctrl_site549] | 7.49 ± 0.71
48 | AAAAAAAAGAATAGAGCATGCAAAATATATGAAATA [TGCATGCA_site933] | 7.78 ± 1.1
49 | CCTTACTTCTTATAAAGTACCCAATGATATACATTA [XGTACX_site1554] | 7.91 ± 0.5
50 | AATATTTATGGGTGCACACAAACATACATATATATA [CACACA_site3395] | 10.8 ± 0.29
51 | TTTTAATGTATATTTTGTACGTATTATTAATATTCG [XGTACX_site8453] | 7.74 ± 0.4
52 | ATTTTCCTTTAATTATGTACTTATGTAATAATAATG [XGTACX_site2612] | 7.83 ± 0.34
53 | ATCTCTACAAAGTGCACACACGTAAAAACATATATA [CACACA_site6046] | 10.2 ± 0.38
54 | TGTATGATTATGTTGTGTACGTAAAATATGAAAAAT [XGTACX_site1720] | 8.65 ± 0.38
55 | GTATCATAAAAGTATACACACATACATACATATGTA [CACACA_site5456] | 7.96 ± 0.42
56 | AATTTTTTTCTCCAAGTGCATTAGAACATTAACGTA [GTGCAC_site9413] | 10.9 ± 0.53
57 | ATATATTTATGTATCACACACAAAAAAAAAAAATAA [CACACA_site255] | 7.69 ± 0.47

Reference: the supplement of paper PMC11417369
